Sequences with one replicate were seen in a single cluster, so their values are uncertain.
System: ATP
Experiment: switch fluorescence ratio, 500 uM ATP over buffer (Cy3 cluster intensity, sum of 5 cycles each) (fold (ratio)); higher = stronger signal-on switching upon ATP binding; sequences stand for … in TCGTCGGCAGCGTCAGATGTGTATAAGAGACAGTTTTTTTTTTTTTTTTTTTTTTTTT…TC
Settings: aptamer strand: ATP DNA aptamer (quencher-CACCTGGGGGAGTATTGCGGAGGAAGG + anchor), 100 nM annealed; ATP concentration: 500 uM; one replicate
Procedure, shortened: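 For every switch-domain sequence, the fluorescence ratio is the mean of per-cluster values, each being summed target-cycle Cy3 intensity over summed buffer-cycle Cy3 intensity. Clusters outside 100-1000 RFU were excluded. On a modified Illumina MiSeq flow-cell, the Cy3-labelled switching-strand clusters were annealed to 100 nM quencher-labelled ATP aptamer, imaged in selection buffer and then after 15 min with 500 uM ATP at 22 °C. Five such cycles were run, with NaOH stripping and re-annealing between them.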
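Further: ATP exposure 15 min at 22 °C before imaging.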

Sequence | switch fluorescence ratio
TCAGGAAGTG | 0.961
ACCGAGAACT | 1.06
CTTCTTGTCG | 0.987
AGACGAGAAA | 0.976
TCGGGGCAAA | 1.05
GAGAGGCGTT | 1.02
ACTCTTCTCG | 1.04
GTTCTTAAGG | 0.96
ACGGGTAGGT | 1.01
TGCGGGGCGA | 0.981
TGATGGAAG | 1.03
ACAGAATCGT | 1.03
AAACGAGTAT | 1.04
TTATATACAT | 0.997
TAATCTGGCA | 0.977
GGATAAAC | 1.08
CGCTCCATAT | 1.13
CTTGGCCCGT | 1.01
GCATAAAAGA | 0.981
TATGTCTATC | 1.02
AACCGCAGAA | 2.46
CACTTTTCTG | 0.998
TCGGAGGTAG | 1.01

Sequence | switch fluorescence ratio
CGCCTCTCGA | 1.02
ATGAATTCCG | 1.01
AGACAAATCG | 0.98
AAGATCGGGA | 1.01
TACATCAGTA | 1.02
GACTGGTTCG | 0.991
ATTTGGTCGA | 1.06
TTATTAAAGT | 1
GGACAACAGT | 1.01
TATCACGGAA | 1.11
GCGGACGGTG | 1.01
AACCGCGCCC | 2.58
CGTAAAAAAG | 1.03
TACCCCATGC | 1.18
CCGAAACCGG | 0.993
AGGCCTAGGG | 0.979
TGGTTTACTT | 0.983
GTGATTCGTA | 0.989
ATCGTCTTTC | 1.03
GAATACCTGT | 0.99
AAGGGTGGGC | 1.06
CATAGGCTGA | 0.99
TGAACTAGCT | 0.98

Sequence | switch fluorescence ratio
CTGCCACTTG | 1.04
CTTGAAACTC | 1.03
AAGTGAGCGG | 1
TATTTAATT | 0.996
CAGAAAAAAA | 1.14
GGCTACAAGC | 0.988
TTCCCCGTAG | 1.44
CTCGTCGATC | 1.44
ATTATGCGAT | 0.954
TGTATGAAAT | 0.999
CACGAGGGTT | 1.04
GCTTTCTAAT | 1.01
CCGTTGTTGG | 1.05
AGATTACTCC | 1.26
CCACGATGTT | 1.03
GGTTTCTCTA | 0.978
CTTGTTGC | 0.951
ACATATTCGT | 1
CAGAAGGAAA | 0.963
AACATTTCTG | 1.01
CCCACCCCTT | 1.05
ACATCCCTG | 0.995
GGGAAGGAGC | 1

Sequence | switch fluorescence ratio
ACTATATGA | 1.05
TTACACAGAG | 1.06
TTGACTGCGC | 1.13
TGGTTCGCGC | 1.09
ATCAGAAGTC | 0.996
CTGGAGTCAT | 2.04
TTCCTTGCGA | 2.63
ATGGAGAAAT | 1.05
TCGGGTTAAT | 1.01
CTTGGGGTT | 1.03
TGATGACGAA | 1.01
TTTGCTGACC | 1.05
GAAGCTTTGC | 1.04
GAGTGCCACC | 1.01
TAACACCTG | 1.04
GATATTTGG | 1.01
ATCAGCTTGC | 1.04
AGCATACGCA | 1.29
ATGGAGAGGT | 0.975
AGACGAGGA | 1.07
TTTTTGACAA | 0.992
GCCTAGTTTA | 0.958
TGCTATCCTA | 1.03

Sequence | switch fluorescence ratio
CTCTGAAACG | 1.07
AGCCGCCACC | 1.54
TTGAGGCTGT | 0.979
ATTCGTGTCG | 0.886
ATGGACGATA | 1.03
TGGCTGACTA | 0.993
TGCAGGCAGT | 0.994
CGGGAGAAGC | 0.984
TCGTCCTTAT | 1.03
CTGCATGGGA | 1.02
CAATTTCAGT | 0.971
ACAATCGACG | 1.05
GAGGGAACGG | 0.985
TTTCCTTT | 0.979
AACAGTTCAA | 1.02
TCATAACGGG | 0.995
TTTTTAGCGG | 1.02
AGTTCGCGAC | 1.03
TTATCTCCTT | 1.06
TAGTTCAACA | 1.03
ATATATATTG | 0.995
ATCCTAGTAG | 0.96
GGGCACTGTA | 1.03

Sequence | switch fluorescence ratio
TTTACTACTT | 1.06
TTATTAAGCG | 0.94
GTCTAAGTAT | 1
GTTGTATATG | 0.956
AAAAAGCCCG | 1.04
GGGAATTATT | 0.983
CACTCGCTGT | 1.11
GTGGCCGGTA | 0.996
TTTCATTATG | 1.02
TTCACTAGGG | 0.968
AAAGCGACCC | 1.16
TTGGGCCACC | 0.962
CATATTTGGA | 0.995
GCCCCCCTAC | 1.13
TTTATTCCTC | 0.997
CAGAGACTGT | 0.969
CCGGCAAGCA | 4.86
CGCAGGAGGC | 1.1
TTCATTACCG | 0.951
GACCAGCCTT | 1.04
GGCCCACAAT | 1.03
GCGCGTGTCA | 1.07
AGGTGAATCT | 0.997

Sequence | switch fluorescence ratio
GATAAGGATT | 1
CCTTTATCTG | 1.06
CGAATTGGTT | 0.967
GTATTCCTTT | 0.998
AGAAGTATGC | 0.943
GCATTTCGAA | 0.986
GAGTTACGGA | 1.06
TGGACGCCCT | 1.78
CGCCGAAAGA | 2.2
AATAATGGGT | 1.03
CCAAAGCAAA | 5.12
CTGTTATAGG | 0.996
TATTAGCATT | 1.1
ACGGTTTCGC | 1.02
AATCACCGCT | 1.06
CAGAATTGTT | 0.976
GGTCTGTATC | 0.961
CATTGTGAGC | 0.993
GCCATCCGTG | 1.06

Source: the supplement of paper PMC10126150
